The source of these data is the antibiotic and cytotoxicity screens of Wong et al. (2023).

The other results are listed elsewhere or left out.

This assay concerns HSkMC (human skeletal muscle cells). Description: cytotoxicity call (relative viability < 0.9). The conditions noted are these: 10 µM.
For `NCC(O)c1ccc(O)c(O)c1.O=C(O)C(O)C(O)C(=O)O` (stereo not given), the cytotoxicity call was “inactive”.
In the case of `C=CC(=O)Nc1cccc([C@@H](CCc2ccc(OC)c(OC)c2)OC(=O)[C@@H]2CCCCN2C(=O)C(=O)C(C)(C)CC)c1`, the cytotoxicity call is “inactive”.
The value for `Cc1ccc(S(=O)(=O)Nc2ccc3c(c2)C(=O)N([C@H](C)CO)C[C@H](C)[C@H](CN(C)S(=O)(=O)c2cn(C)cn2)O3)cc1` was “inactive”; that for `C[C@@H]1O[C@@H](O[C@H]2[C@H](O)[C@@H](O)[C@H](OC[C@H]3O[C@@H](OC(=O)[C@]45CCC(C)(C)C[C@@H]4C4=CC[C@H]6[C@@]7(C)CC[C@H](O[C@H]8OC[C@H](O)[C@H](O)[C@H]8O[C@H]8O[C@@H](C)[C@H](O)[C@@H](O)[C@H]8O)[C@@](C)(CO)[C@@H]7CC[C@@]6(C)[C@]4(C)CC5)[C@H](O)[C@@H](O)[C@@H]3O)O[C@@H]2CO)[C@H](O)[C@H](O)[C@H]1O` was “inactive”; that for `NCc1ccc(C(=O)O)cc1` was “inactive”.
The value for `CC(C)NC(=O)Nc1cccc2c1O[C@@H](CN(C)Cc1ccc(-c3ccccc3)cc1)[C@H](C)CN([C@H](C)CO)C2=O` was “inactive”; that for `CN1CCN(C(=O)C[C@H]2CC[C@@H]3[C@H](COc4ccc(NC(=O)C5CCOCC5)cc4C(=O)N3C)O2)CC1` was “inactive”.
On to `C[C@H](CO)N1C[C@H](C)[C@H](CN(C)S(=O)(=O)c2ccc(Cl)cc2)OCCCC[C@H](C)Oc2ccc(NS(=O)(=O)c3ccc(F)cc3)cc2C1=O`, for which the cytotoxicity call is “inactive”.
The value for `C[C@@H]1CN([C@@H](C)CO)C(=O)c2cccc(NC(=O)c3ccc(-c4nccs4)cc3)c2O[C@@H]1CN(C)Cc1ccc(-c2ccccc2)cc1` was “inactive”.
`COc1ccc(S(=O)(=O)Nc2ccc3c(c2)CC(=O)N([C@@H](C)CO)C[C@@H](C)[C@H](CN(C)C(=O)Nc2c(C)noc2C)O3)cc1`: the cytotoxicity call is “inactive”.
For the compound `C[C@@H]1CN([C@H](C)CO)C(=O)c2cc(NS(=O)(=O)c3ccccc3)ccc2O[C@H]1CN(C)S(=O)(=O)c1ccccc1`, the cytotoxicity call is “inactive”.
As for `C[C@@H]1CN([C@H](C)CO)C(=O)c2cc(NC(=O)CCN3CCOCC3)ccc2O[C@H]1CN(C)C(=O)NC1CCCCC1`, the cytotoxicity call is “inactive”.
The value for `CC(C)NC(=O)N(C)C[C@H]1Oc2cc(C#Cc3cccc(F)c3)ccc2S(=O)(=O)N([C@H](C)CO)C[C@@H]1C` was “inactive”; that for `COC1=C(N)C(=O)c2nc(-c3nc(C(=O)O)c(C)c(-c4ccc(OC)c(OC)c4O)c3N)ccc2C1=O` was “active”; that for `C[C@H](CO)N1C[C@H](C)[C@H](CN(C)S(=O)(=O)c2cn(C)cn2)Oc2ncc(-c3ccc(F)cc3)cc2C1=O` was “inactive”.
On to `C[C@H]1CN([C@@H](C)CO)C(=O)c2cc(NC(=O)Nc3ccc4c(c3)OCO4)ccc2O[C@H]1CN(C)Cc1ccc(-c2ccccc2)cc1`, for which the cytotoxicity call was “inactive”.
With `C[C@@H]1CN([C@@H](C)CO)C(=O)c2cccc(NC(=O)Nc3ccc(C(F)(F)F)cc3)c2O[C@@H]1CN(C)Cc1ccccc1`, the cytotoxicity call is “inactive”.
As for `COc1ccc(S(=O)(=O)Nc2ccc3c(c2)CC(=O)N([C@H](C)CO)C[C@H](C)[C@H](CN(C)Cc2ccc(-c4ccccc4)cc2)O3)cc1`, the cytotoxicity call was “inactive”.
For the compound `C[C@@H]1CN([C@H](C)CO)C(=O)c2cc(C#CC3(O)CCCC3)cnc2O[C@@H]1CN(C)S(=O)(=O)c1cccc(F)c1`, the cytotoxicity call was “inactive”.
Consider `O=C(C[C@@H]1CC[C@H]2[C@@H](COC[C@@H](O)CN2C(=O)c2ccncc2)O1)NCc1ccc(-c2ccccc2)cc1`, for which the cytotoxicity call is “inactive”.
With `Cc1noc(C)c1S(=O)(=O)Nc1ccc2c(c1)C(=O)N([C@H](C)CO)C[C@@H](C)[C@H](CN(C)Cc1ccc(C(F)(F)F)cc1)OCCCC[C@@H](C)O2`, the cytotoxicity call was “inactive”.
Turning to `COc1ccc(NC(=O)N(C)C[C@H]2OCCCC[C@H](C)Oc3ccc(NC(=O)c4ccncc4)cc3C(=O)N([C@@H](C)CO)C[C@H]2C)cc1`, the cytotoxicity call was “inactive”.
Take `C[C@@H]1CCCCO[C@@H](CN(C)C(=O)Nc2ccccc2)[C@H](C)CN([C@@H](C)CO)C(=O)c2cc(NS(=O)(=O)c3ccc(F)cc3)ccc2O1`: the cytotoxicity call is “inactive”.
The value for `C[C@@H]1CN([C@H](C)CO)C(=O)c2cc(NC(=O)Cc3ccccc3)ccc2O[C@@H](C)CCCCO[C@H]1CN(C)Cc1ccc(C(=O)O)cc1` was “inactive”.
As for `C[C@H](CO)N1C[C@H](C)[C@H](CN(C)Cc2cccc(C(F)(F)F)c2)OCc2ccccc2-c2ccccc2C1=O`, the cytotoxicity call was “inactive”.
As for `COC(=O)NCCOc1nc(N(C)C)nc(N(C)C)n1`, the cytotoxicity call was “inactive”.
For the compound `C[C@@H]1CN([C@@H](C)CO)C(=O)c2cccc(NC(=O)NC3CCCCC3)c2O[C@@H]1CN(C)Cc1ccc(Cl)c(Cl)c1`, the cytotoxicity call was “inactive”.
Turning to `Cc1noc(C)c1S(=O)(=O)N(C)C[C@H]1Oc2ccc(NC(=O)CCCN(C)C)cc2C(=O)N([C@@H](C)CO)C[C@H]1C`, the cytotoxicity call was “inactive”.
As for `NC1CCC(N2CCC3(CC2)CC(=O)N(Cc2cc(F)cc(F)c2)C3)CC1` (stereo not given), the cytotoxicity call is “inactive”.
The value for `NC(=O)CSc1nnc(Cc2cc(=O)[nH]c(=O)[nH]2)n1-c1ccccc1` was “inactive”; that for `Nc1nc(=O)[nH]cc1Br` was “inactive”; that for `CNC[C@H]1Oc2ccc(NS(=O)(=O)c3cn(C)cn3)cc2CC(=O)N([C@H](C)CO)C[C@@H]1C` was “inactive”.
On to `Cc1noc(C)c1NC(=O)N(C)C[C@@H]1OCCCC[C@@H](C)Oc2ccc(NC(=O)CCCCCC(=O)Nc3ccccc3N)cc2C(=O)N([C@H](C)CO)C[C@@H]1C`, for which the cytotoxicity call was “inactive”.
For the compound `C[C@@H]1CN([C@H](C)CO)C(=O)c2cc(NS(C)(=O)=O)ccc2O[C@H]1CN(C)S(=O)(=O)c1cccs1`, the cytotoxicity call was “inactive”.
As to `COc1cccc(S(=O)(=O)Nc2ccc3c(c2)[C@@H]2C[C@H](CC(=O)NCC(F)(F)F)O[C@H](CO)[C@@H]2O3)c1`, the cytotoxicity call is “inactive”.
The value for `CC(=O)Nc1ccc(S(=O)(=O)Nc2ccc([N+](=O)[O-])cc2)cc1` was “inactive”.
In the case of `CN(C)C(=N)NCCC[C@H](N)C(=O)O`, the cytotoxicity call is “inactive”.
`COc1ccc(S(=O)(=O)N(C)C[C@@H]2OCCCC[C@H](C)Oc3ccc(NS(C)(=O)=O)cc3C(=O)N([C@H](C)CO)C[C@H]2C)cc1`: the cytotoxicity call is “inactive”.
In the case of `COC(=O)[C@]12CCC(C)(C)C[C@H]1[C@H]1C(=O)C=C3[C@@]4(C)C=C(C#N)C(=O)C(C)(C)[C@@H]4CC[C@@]3(C)[C@]1(C)CC2`, the cytotoxicity call was “active”.
With `C[C@@H]1CN([C@@H](C)CO)S(=O)(=O)c2ccc(-c3cncnc3)cc2O[C@H]1CN(C)C(=O)Cc1cccnc1`, the cytotoxicity call was “inactive”.
